# Measurements reported in article PMC12040169 (PLOS Biology, 2025).
# Some of the results follow.
# Tested on: T1, C. trachomatis L2/434/Bu expressing GFP (CTL2-GFP)
# T1 construct: L2/434/Bu GFP intracellular growth in HeLa cells
# Design: species or system HeLa; C. trachomatis total inclusion area by high-content imaging, normalised to DMSO
# Conditions: total inclusion area; 28.5 h, 10 µM; inhibitor
# Outline: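 High-content images of fixed, Hoechst-stained infected cultures supply inclusion area and count (growth) plus nuclei number (viability), complementing bulk GFP/resorufin fluorescence. MIC determination is unchanged from the primary assay.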
row,SMILES,% of control remaining
1,CC(C)n1ccnc1CNc1cccc(OCC(=O)N2CCCC2)c1 [CBK305377],134.254
2,c1cc(-c2nnc3n2CCCCS3)ccn1 [CBK288543],81.7486
3,COCc1ccc(Nc2ccccc2S(=O)(=O)c2ccccc2)cc1OCC1CCN(C(=O)OC(C)(C)C)CC1 [CBK175577],77.1724
4,COCCn1nnnc1C(c1cc2c(C)ccc(C)c2[nH]c1=O)N1CCN(C(=O)c2ccco2)CC1 (centres unmarked) [CBK111563],62.5662
5,COc1ccc([C@@]23CC[C@@H](NC(=S)NC(C)=O)C[C@@H]2N(Cc2ccccc2)CC3)cc1OC [CBK025503T],83.1215
6,Cc1ccc(S(=O)(=O)n2ccc3ccc(N4CCN(C)CC4)nc32)cc1 [CBK063327],81.7934
7,Cc1csc(C(Cc2ccsc2)NC(=O)CN2CCCC2=O)n1 (centres unmarked) [CBK285046],81.8972
8,COc1ccc(C2NC(C(=O)O)CS2)cc1CN1CCOCC1 (centres unmarked) [CBK287132],106.34
9,Cc1ccc(C2=NN(c3ccccc3)C(c3cn(CCC(=O)O)nc3-c3ccccc3)C2)cc1 (centres unmarked) [CBK296110],86.6864
10,CCc1nn(CC(=O)NC2CCC2)c(=O)c2cc3ccsc3n12 [CBK284136],75.3816
11,Cc1ccc(NC(=O)c2cscn2)c(C)n1 [CBK200297],79.611
12,Cn1ccnc1Sc1nc2ccccc2nc1N1CCCC1 [CBK093791],100.365
13,O=C(NCC1CCNCC1)c1ccncc1 [CBK267637C],105.155
14,Cc1cc(NC(=O)c2cc(Br)cnc2NCc2cccnc2)n(C)n1 [CBK076358],92.1835
15,Cc1ccc(Cl)cc1-n1cc(-c2ccc(F)cc2)nn1 [CBK113128],98.6743
16,Cc1nc(NCc2ccc(C(F)(F)F)cc2)nc(N2CCOCC2)n1 [CBK023863],67.3638
17,CO/N=C(N)/C(N)=N/OC [CBK019780],34.8058
18,O=C(Cn1c(-c2cncs2)nc2ccccc21)NCc1ccc2c(c1)OCO2 [CBK264699],102.565
19,CCc1cccc2c(CC(=O)N(C)CCN(C)C)c(C)[nH]c12 [CBK282673],92.2749
20,O=C(c1ccc(C#CC2(O)CCCCC2)cc1)N1CCC(C(O)(c2ccccc2)c2ccccc2)CC1 [CBK033758],65.5621
21,COc1ccc(C)cc1S(=O)(=O)N1CCc2c(CN3CCN(C)CC3)cccc21 [CBK113628T],71.9902
22,Cn1cccc1CNCCc1ccc(S(N)(=O)=O)cc1 [CBK267831C],100.754
23,CC(C)N1CCC(C(=O)NC(=O)NCCc2ccc3c(c2)OCO3)CC1 [CBK034804],97.6996
24,COc1ccccc1C(=O)N1CCC(C(=O)N(C)C(c2ccccc2)c2ncccc2C)CC1 (centres unmarked) [CBK060531],100.916
25,CCOc1cc(CCC(=O)NC(C)c2ccccc2)on1 (centres unmarked) [CBK282597],127.745
26,O=[N+]([O-])c1cccc(-c2noc(COc3ccc(Br)cc3Cl)n2)c1 [CBK264452],95.5261

row,SMILES,% of control remaining
1,CC(=O)c1cn(CCC(=O)NC2CCCN(C)C2)c2ccccc12 (centres unmarked) [CBK282503],102.579
2,COc1cccc2cc(C(=O)NCc3ccc(NS(C)(=O)=O)cc3)oc12 [CBK161479],72.5732
3,C[C@@H]1CN(Cc2ccco2)[C@H](C)CN1CC(=O)Nc1nc2c(s1)CCCC2 [CBK286530],113.902
4,CN1CCN(CCCNC(=O)N2CCN(c3ccccc3)CC2)CC1 [CBK155168],67.8789
5,O=C(O)COc1ccc(N2C(=O)c3ccc(Oc4cccc([N+](=O)[O-])c4)cc3C2=O)cc1 [CBK264259],107.181
6,CCN1C(=O)CC2(C1=O)C(=O)N(CC)c1ccc(C)cc12 (centres unmarked) [CBK075140],103.735
7,O=C(C1=C(O)C(=O)N(Cc2cccnc2)C1c1ccncc1)c1ccc(Cl)cc1 (centres unmarked) [CBK264513],106.025
8,CN(c1cccc(NS(=O)(=O)c2ccc3ccccc3c2)c1)S(C)(=O)=O [CBK267507],117.68
9,C=CCN1C(=O)C2(CC(=O)N(Cc3ccc(OC)c(OC)c3)C2=O)c2ccccc21 (centres unmarked) [CBK075148],87.2362
10,O=C(Nc1ccccc1)Nc1ccc(=O)n2c1[C@@H]1C[C@@H](CN(C(=O)c3ccc(F)cc3)C1)C2 [CBK288714],98.3949
11,CN1CCC(N(C)C(=O)c2cc3oc(-c4ccccc4)nc3c(=O)n2C)C1 (centres unmarked) [CBK200424T],78.6086
12,Cn1c(-c2ccccc2F)n[nH]c1=S [CBK028811],100.974
13,COc1cccc(-c2cnc3[nH]c(=O)n(Cc4ccc(Cl)cc4)c3n2)c1 [CBK064596],102.975
14,CC(=O)Oc1cc(C(F)(F)F)nc(NCc2ccc(Cl)cc2)n1 [CBK000500],74.6357
15,O=C(NCc1nnc(-c2cccs2)o1)c1cccc(Cl)c1 [CBK284633],80.9542
16,CCn1cc(C(=O)N2CCn3cc(C(F)(F)F)nc3C2)c(C)n1 [CBK283916],80.649
17,O=C(c1ccco1)N1CCN(c2ncc(-c3ccc(N4CCOCC4)cc3)n3ccnc23)CC1 [CBK091225],97.4703
18,CC(=O)Nc1ccc(S(=O)(=O)NC2(C(F)(F)F)N=C(c3ccccc3)NC2=O)cc1 (centres unmarked) [CBK267932],105.851
19,O=C(NCC1CCN(c2ccc(F)c(F)c2)C1)c1c[nH]nc1C1CC1 (centres unmarked) [CBK305409],47.7565
20,COCCNC(=O)Cn1c(-c2ccco2)cc2cccnc21 [CBK282720],147.03
21,O=C(Nc1ccc(C(F)(F)F)cc1)N(Cc1ccc2ccccc2c1)CC1CCNCC1 [CBK056720],96.0373
22,COc1cccc(NC(=O)c2cncc(-c3ccc(C(=O)N4CCOCC4)cc3)c2)c1 [CBK160213],89.0452
23,C=CCNC(=O)N[C@H]1[C@H](O)[C@@H](N2CCC(C(=O)OC)CC2)[C@@H]2OC[C@H]1O2 [CBK288807],126.151
24,O=C(Nc1cnc(-c2cccc(C(F)(F)F)c2)c(-c2ccco2)n1)c1ccccn1 [CBK036873],108.724
25,C/C(=N\NC(=O)CCN1CCN(C)CC1)c1ccc(O)cc1 [CBK263142],97.7451
26,COCCN1C(=O)C2(CC(=O)N(CCN3CCCC3=O)C2=O)c2cc(OC)ccc21 (centres unmarked) [CBK075189],98.8402

row,SMILES,% of control remaining
1,CCOc1cc(OCC)cc(C(=O)N2CCCC3(CC2)CC(=O)c2ccc(C)cc2O3)c1 (centres unmarked) [CBK168241],92.6766
2,O=C(Nc1ccc(F)c(F)c1)N[C@H]1CC[C@@]2(c3cccc(Br)c3)CCN(Cc3ccccc3)[C@H]2C1 [CBK047515],61.7414
3,O=C(NCc1ccccc1)c1cnccc1C(F)(F)F [CBK200194],86.9506
4,CNC1(c2nnnn2CCOC(=O)Nc2ccc(Cl)cc2)CCCC1 [CBK266253],92.0622
5,Cc1cccc(CN2CCC(NC(=O)C3(C#N)CCCC3)CC2)c1 [CBK305781],44.5949
6,CN(C)CCCn1cccc1C=O [CBK261993G],93.8317
7,Cc1ccc(C)c(CC(=O)N(CCC(=O)O)C2CCOCC2)c1 [CBK305469],136.519
8,COc1ccc([C@@]23CC[C@@H](NC(=O)Nc4cc(C)nc(C)c4)C[C@@H]2N(C)CC3)cc1OC [CBK045876],80.5493
9,COc1ccc(C2=NN(C(=O)CCCC(=O)O)C(c3ccc4nccnc4c3)C2)cc1OC (centres unmarked) [CBK297785],115.42
10,O=C(NCc1ccc(C(=O)O)cc1)NC1CCCCC1 [CBK286980],119.809
11,CCOc1cc(S(=O)(=O)NCc2ccncc2)ccc1Br [CBK270147],82.3871
12,O=S(=O)(NCCc1nc2ccccc2[nH]1)c1ccc(Cl)c(Cl)c1 [CBK264416],97.1269
13,O=C(CSc1nccn(-c2ccc(F)cc2)c1=O)Nc1ccc(F)cc1 [CBK287768],66.9297
14,O=C(NCc1nc2ccccc2[nH]1)c1cc(Br)cnc1N1CCOCC1 [CBK076278],100.063
15,c1ccc(OCCN2CCCN(c3cc(OCC4COc5ccccc5O4)ncn3)CC2)cc1 (centres unmarked) [CBK083395T],72.584
16,CCN(CC)C(=O)c1ccsc1NS(=O)(=O)c1ccc(Br)cc1 [CBK042318],106.611
17,COc1cccc(CC(=O)N2CCC(Cc3ccccc3-c3ccccc3)(C(N)=O)CC2)c1 [CBK285730],107.736
18,O=[N+]([O-])c1cc(CN2CCN(c3ccccc3)CC2)c(O)c2ncccc12 [CBK218696],115.137
19,CN(C)CCCNC(=O)c1ccc([N+](=O)[O-])o1 [CBK262118],40.9056
20,Cc1nc(CNCc2c(C(C)C)nn(C)c2N(C)C)cs1 [CBK305119],67.9957
21,Cc1ccc2[nH]c(C)c(CC(=O)N(C)CCN3CCCCC3)c2c1 [CBK282749],100.586
22,COc1ccc(CCNC(=O)CCn2nc(C)c(Cl)c2C)cc1C [CBK281643],88.023
23,Cc1ccc(C(=O)C2=C(O)C(=O)N(CCO)C2c2ccccc2[N+](=O)[O-])cc1 (centres unmarked) [CBK263822],95.5384
24,CC(C)CCc1c(O)nc(SCCN2CCOCC2)n(-c2ccccc2)c1=O [CBK263363C],93.7086
25,O=[N+]([O-])c1ccc(Sc2cccs2)c(C(F)(F)F)c1 [CBK002621],76.2517
